Read counts are not given, so values of variants with three or more changes are uncertain.

B1: CPEB3 Ribozyme (parent)
chain: UAACAGGGGGCCACAGCAGAAGCGUUCACGUCGCAGCCCCUGUCAGAUUCUGGUGAAUCUGCGAAUUCUGCUGUAUAUCUC

This data set covers variants of B1. Put plainly: self-cleavage, relative activity (ratio to wild type); higher = more cleavage; in vitro, sequencing. In short, it runs like this: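 Libraries of CPEB3 self-cleaving ribozyme mutants came from rounds of error-prone PCR and carried barcodes, which DNA sequencing matched to variants. In vitro transcription used T7 RNA polymerase at 37°C for 5 hours, with a further 15 min in DNase I before EDTA stopped the reaction; the ribozymes cleaved during both steps. The RNA was reverse transcribed with template switching and sequenced on Illumina. Relative activity is the cleaved/total read fraction of a variant divided by that of the unmutated ribozyme, averaged over three batches with at least 5 reads.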
C11A A21G C34U U43C U49C: the self-cleavage worked out at 0.04.
The same measure for C11A U31C A45U A56G: 0; for C11A U26C U41C A47G U58C: 0.15; for G10C U25A U41A U60G: 0.05.
With G10U A18G U54C U74C A75G, the self-cleavage turned out to be 0.18.
The same measure for C11G A18G A35U U49A A65G U66C: 0.06; for C11A U26G C38A G63U A64G: 0.19; for C11A U25C U54C U60A: 0.05.
Turning to C11A A21G U41A U43A U66C A77G, the self-cleavage stood at 0.04.
The same measure for G10U A28U U67C: 0.1.
In the case of C11G A15U A64G, the self-cleavage came out at 0.34.
Then G10U A35U U41C U49C G63U, with 0.04; and G10U U60A U66A, with 0.14; and G10U A28G A57G U66C, with 0.03.
Turning to C11A U25C A56G U67A, the self-cleavage amounted to 0.08.
As for C11A U58C A65G U72C U74C, the self-cleavage stood at 0.11.
Then C11G A20U U25C, with 0.07; and G10U A13G U25C G33U A47G U49A U78C, with 0.05.
Consider C11A A15U A56U A65G C68A, for which the self-cleavage is 0.02.
Then C11G A13G A45U U66A U76C, with 0.04; and G10U A47G U66C, with 0.05; and C11G A15G A45U A56G A77G, with 0.09.
Then G10U A28U U41C A45U U60A C71U U78A, with 0.03; and C11A A21G G24C A35G A45G, with 0.2.
For C11A U26C A65G U66C, the self-cleavage turned out to be 0.04.
The same measure for G10C U51C U72C: 0.25.
Consider C11A A15U A45G, for which the self-cleavage was determined as 0.21.
With C11A A15C C34G U48C U72C, the self-cleavage is 0.07.
Then G10U U41C U49A A64U U74C U78A, with 0.08.
On to C11A A21G A77G, for which the self-cleavage was 0.32.
G10U C50U A77C: the self-cleavage was 0.18.
Then G10C U60A U72A, with 0.13; and C11G A20G G36A U43C U48C, with 0.05.
Then G10U C11A A35U A64G, with 0.07; and C11A A20U U25C A35G U49C C59U, with 0.06.
For G10U U41C U49A, the self-cleavage was 0.13.
On to G10C G33A U69C, for which the self-cleavage amounted to 0.06.
The same measure for C11G A20G U51A U60A A77G: 0.08.
C11G A18G C59U U80C: the self-cleavage is 0.15.
Regarding G10C U26C A47U A64G A65G, the self-cleavage was 0.06.
Then G10C G42A U78A, with 0.16.
The same measure for C11A U43G U48A: 0.46; for C11G A18C U43A U78C: 0.05; for C11A U26C U76A: 0.21.
The same measure for C11G A18G A47G U72C U80C: 0.23.
G10C C40U U80C: the self-cleavage came to 0.22.
Then C11A U25C A64G, with 0.05; and G10U A18G U49C A56U A64G A65G, with 0.13; and C11G A20U U25C A28U, with 0.07.
Then G10U A21G U72C, with 0.04; and G10U U41C A57C, with 0.27; and C11G A13U C34U, with 0.25.
Take G10C U25C A35C U49A: the self-cleavage came out at 0.09.
The same measure for G10C U26C U51C A75G: 0.12.
Consider C11A A28G A56U U66A, for which the self-cleavage came out at 0.06.
Then C11A A13C U31C C50A U69C, with 0.09; and C11A A21G A28G U43A, with 0.09; and G10U G33A U41C U80A, with 0.06.
Then C11A A18G U41A A57G U69C, with 0.06; and G10U U49C U72A, with 0.07; and C11G A15G U26C U51A U69A, with 0.04.
The same measure for C11A G24A A47G A64U U69C U74A: 0.03; for C11G A18G A57C A64U U74C: 0.04; for C11G A18G U49C G52A A75U: 0.06.
For the variant C11G A18U U43A A64U A65G U76A, the self-cleavage amounted to 0.04.
In the case of C11A U51C G52A U54C A56G U60A G61U, the self-cleavage was determined as 0.05.
The same measure for G10U U43C U69C U72A A77G: 0.04; for C11A A15G G22A A47U U54G U66A U74C: 0.18; for C11A A21G C27G U67C: 0.14.
Regarding C11A U31C U41A A56G U60A, the self-cleavage stood at 0.06.
In the case of C11G A15U U25C U31A U43C A45G U74C, the self-cleavage was 0.31.
The same measure for G10C U26C U41C U54C: 0.13; for G10U C12A U48A U60A U80G: 0.03.
C11A A21G A45G U72A: the self-cleavage is 0.03.
For C11A A18U U41C A65G, the self-cleavage is 0.1.
The same measure for C11A U26C C34U U60A: 0.05; for G10C U26A U54A U60A U74C: 0.09; for G10U A21G G33U U78C: 0.04.
The same measure for C11A C40A U66C U78A: 0.03.
As for C11A U31A C39A A64G, the self-cleavage was determined as 0.06.
The same measure for C11G A15G A57G: 0.46.
The same measure for C11A A13G A21G A64G: 0.42; for G10U U31C U49C A56G U80A: 0.07; for C11G A13G A15G U31A U51A U58C: 0.05.
The same measure for C11G A15G U43C U74A: 0.1.
C11A A20G G46U U48A U60C U80A: the self-cleavage was 0.35.
As for C11G A13G A45G U72C, the self-cleavage was 0.48.
With G10U U25A U49C A56G U58C, the self-cleavage is 0.05.
Then C11G A15U U51C U80C, with 0.21; and C11G A15G A35U C37U U43C, with 0.09.
Take C11G A13U A21G U67C U80A: the self-cleavage is 0.1.
As to G10C U43A A45U G53A, the self-cleavage worked out at 0.19.
Regarding C11A C14U C17A U72C A77G, the self-cleavage turned out to be 0.38.
The same measure for G10U C17A U72C: 0.21; for C11G A20U A21G U26C U72A: 0.08.
Turning to C11A A21G U31C, the self-cleavage was 0.06.
The same measure for C11G A15G C17U A18G U67C G70C U72G: 0.01.
The same measure for C11G A15G A57G U78C: 0.1; for C11G A20U U26C A45G U66C: 0.04.
Then C11A A21U A35G A64U U69C U78C, with 0.02; and C11A A15U U66C, with 0.19; and C11G A20C A35U U74C, with 0.05.
As to C11A U25A U31A, the self-cleavage was found to be 0.07.
The same measure for C11A C38A A45G G61C U66C: 0.04.
Then G10U A18G U54C, with 0.16; and C11A A28U U54C U72A U80C, with 0.22; and C11G A18G C37A U48A U58A, with 0.07.
Then C11G A13G A35G G52A C68U U76C U78C, with 0.45; and G10C G16U A18G U72C, with 0.08; and G10U G22U C40U A45U U48C U49A U51A, with 0.04.
Regarding G10U G19U U31A C59A U66C, the self-cleavage was determined as 0.03.
Then C11G A15C A35U C37A U49C A64G, with 0.05; and G10U A47G A56C, with 0.12.
Consider G10U A13U A35G U51A G53U U58C U80C, for which the self-cleavage stood at 0.28.
Consider G10U G22A A47U U78C, for which the self-cleavage was 0.12.
C11A A18G A20U A57G C68A: the self-cleavage was 0.05.
With C11G A18C C38A U41A A56G U66G, the self-cleavage is 0.03.
For C11A A15U U26G C29U U76C, the self-cleavage is 0.16.
Consider C11A C29G U67C U72C, for which the self-cleavage turned out to be 0.05.
As for C11G A15G U51A U78C, the self-cleavage came to 0.15.
Then C11G A13C U25C A45G, with 0.05.
On to C11A U26G C38A A64G, for which the self-cleavage was determined as 0.08.
Consider C11A A18U U26C A45U U51C U54G A57G, for which the self-cleavage was 0.1.
As to C11G A13G C23G U48C A65G U72C, the self-cleavage worked out at 0.15.
The same measure for C11G A20G A35G U43A U72C: 0.34.
In the case of C11A A13C G22A U41A U43C A56U A77G, the self-cleavage was 0.05.
C11A C29G U78C: the self-cleavage worked out at 0.07.
As to G10C U48C A65U A75G, the self-cleavage is 0.01.
The same measure for C11A U72C U78A: 0.52; for G10C U31C C62G U69C U78C: 0.07.
Then C11A U41A U51C U54C A65G U72G, with 0.07; and C11A A18U C23G C44A, with 0.06.
The same measure for C11A C29U A35C U41C U43C U66C: 0.03; for C11G A13C U48C C50A A77G: 0.25; for G10U C11G A15G A18G U31A U76C: 0.05.
Consider C11G A13G A20U U67C U69A, for which the self-cleavage came out at 0.08.
The same measure for C11A A18U U51A A57G: 0.04; for C11A C27U C32U A56U: 0.03.
The same measure for C11A A56U A64G: 0.15; for C11A A18U U60A A65G U78A U80A: 0.19.
Consider G10U A15G G24A A77U, for which the self-cleavage turned out to be 0.04.
Then C11A C39G U54C, with 0.2.
Then G10C U31C A45G G52A C62G U69C U78C, with 0.06; and C11A U26C C38A A57U, with 0.06; and C11G A20G A35U A45U U72C, with 0.09.
Take C11A A13G U26G U67C U69A: the self-cleavage came out at 0.08.
For the variant C11A A15C C27U, the self-cleavage was 0.28.
The same measure for C11A A35G C40U: 0.17; for C11A C23G C32A C38G U69G: 0.02; for C11A U51A U67A U69C G70A: 0.07.
Then G10C U26A A45C A47U U58C C59U A65G, with 0.16; and C11G A13G A45U U67C U69A, with 0.22.
The same measure for C11A A13C U25C A45U U60A U67A U69C: 0.08.
With G10U A47G A57G U80C, the self-cleavage is 0.14.
Then C11G A18U A21G A35U A57G U60A U72C, with 0.13.
Then C11G A18U U60C U69C U76C U78C, with 0.06; and G10C U31C C34A A64G, with 0.11; and G10C U31G U41C A45G U58G U66C, with 0.14.
Turning to C11G A18U A47U A65G A75C, the self-cleavage stood at 0.05.
Take G10U A20G A21U A28G A35U A77G: the self-cleavage came to 0.07.
For C11G A18U A35G, the self-cleavage amounted to 0.06.
Then G10U A18U A64U, with 0.06; and C11A U25C C34A A45G U60G C71U U78C, with 0.02; and G10U A13G U51C U72C, with 0.14.
The same measure for C11G A18U A20U U49C A56G A64G U69C: 0.03; for C11A A20G U43A A64G U72A: 0.07.
The same measure for C11A A18U C32U G36A: 0.05.

The values above are taken from the RNAGym collection of RNA variant scans (doi:10.1093/nar/gkz1192).
